# Results as given in the supplement of paper PMC10369915.
# This is one part of the list. Rule as the data show it: active = 3.2 or more and inactive = the rest. Most of these values are background signal.
# Columns and labels:
# Assay in all cases: enrichment score (SH2-bound / input frequency) (ratio); bacterial display of known human phosphotyrosine sites (pTyr-Var adds point mutants) read by sequencing; higher = stronger binding; tyrosines were phosphorylated by kinases first
# Details in all cases: peptide library: pTyr-Var
# SHP2 C-SH2 domain E139D = molecular target: SHP2 C-SH2 domain E139D
# [1] = molecular target: SHP2 C-SH2 domain wild-type
# SHP2 N-SH2 domain L43F = molecular target: SHP2 N-SH2 domain L43F
# SHP2 N-SH2 domain T42A = molecular target: SHP2 N-SH2 domain T42A
# SHP2 N-SH2 domain T52S = molecular target: SHP2 N-SH2 domain T52S
# [2] = molecular target: SHP2 N-SH2 domain wild-type
# 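Also: displayed peptides selected on beads carrying the immobilized SH2 domain, with library peptides lacking any tyrosine serving as negative controls.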
Binder,enrichment score (SHP2 C-SH2 domain E139D),enrichment score [1],enrichment score (SHP2 N-SH2 domain L43F),enrichment score (SHP2 N-SH2 domain T42A),enrichment score (SHP2 N-SH2 domain T52S),enrichment score [2]
TLCLCYKETEE [ATP8B1_Y658_I661T],inactive: 1.41,inactive: 1.68,inactive: 1.85,inactive: 1.07,inactive: 1.54,inactive: 1.85
CKLVDYDSARH [BIN1_Y150_R145C],inactive: 0.584,inactive: 0.72,inactive: 0.625,inactive: 0.698,inactive: 0.614,inactive: 0.79
WAAQRYGRELR [BAD_Y110],inactive: 0.342,inactive: 0.389,inactive: 0.246,inactive: 0.226,inactive: 0.293,inactive: 0.31
FDCKWYIPLTD [BCR_Y756_YF],inactive: 0.996,inactive: 1.46,inactive: 0.901,inactive: 1.06,inactive: 0.967,inactive: 1.49
FIRKDYEACKA [BBS4_Y48_YF],inactive: 0.883,inactive: 0.914,inactive: 0.873,inactive: 0.691,inactive: 0.75,inactive: 0.766
QMVGMYASFYM [AVPR2_Y124_S127F],inactive: 0.978,inactive: 1.62,inactive: 1.07,inactive: 1.2,inactive: 0.961,inactive: 1.4
EEQFFYEKAIL [BCCIP_Y257_E254Q],inactive: 1.3,inactive: 1.36,inactive: 1.19,inactive: 0.941,inactive: 1.3,inactive: 1.21
QMVGKYASSYM [AVPR2_Y124_M123K],inactive: 0.898,inactive: 0.899,inactive: 0.796,inactive: 0.619,inactive: 0.906,inactive: 0.856
EMTRNYIIFIE [BCO2_Y294_G289E],inactive: 1.08,inactive: 1.06,inactive: 1.11,inactive: 1.15,inactive: 1.05,inactive: 1.17
GHMFAYDWISI [BEST1_Y227_L224M_YF],inactive: 2.13,inactive: 2.18,inactive: 1.89,inactive: 1.82,inactive: 2.35,inactive: 2.28
GHMYAYDWISI [BEST1_Y227_L224M],inactive: 2.8,inactive: 2.55,inactive: 2.52,inactive: 2.76,inactive: 2.9,inactive: 2.56
TMKSRYMELYD [BBS2_Y644],inactive: 0.954,inactive: 0.748,inactive: 1.27,inactive: 2.47,inactive: 1.1,inactive: 0.844
KNCFKYYMSDD [ATRX_Y203],inactive: 1.09,inactive: 1.29,inactive: 1.08,inactive: 1.16,inactive: 0.926,inactive: 1.47
RFMELYDLNRD [BBS2_Y648_YF],inactive: 1.19,inactive: 1.12,inactive: 0.743,inactive: 0.934,inactive: 1.51,inactive: 0.759
GKTQQYECKWF [BCR_Y751_D752E_YF],inactive: 0.976,inactive: 1.02,inactive: 0.932,inactive: 0.858,inactive: 0.893,inactive: 1.15
KVPELYEIHTE [BCR_Y554_K558T],inactive: 0.766,inactive: 0.75,inactive: 0.788,inactive: 0.729,inactive: 0.685,inactive: 1.04
DRIVNYSRASI [ATP7A_Y1459],inactive: 1.14,inactive: 0.962,inactive: 0.833,inactive: 0.962,inactive: 0.854,inactive: 0.937
AGRTGYDNREI [BCL2_Y9],inactive: 0.639,inactive: 0.71,inactive: 0.68,inactive: 0.544,inactive: 0.56,inactive: 0.784
SDTGQYQCLVF [AXL_Y115],inactive: 0.625,inactive: 0.86,inactive: 0.617,inactive: 0.616,inactive: 0.516,inactive: 0.989

Binder,enrichment score (SHP2 C-SH2 domain E139D),enrichment score [1],enrichment score (SHP2 N-SH2 domain L43F),enrichment score (SHP2 N-SH2 domain T42A),enrichment score (SHP2 N-SH2 domain T52S),enrichment score [2]
FRAVKYLQMVG [AVPR2_Y117_C112Y_YF],inactive: 1.01,inactive: 1.34,inactive: 1.23,active: 3.26,inactive: 1.09,inactive: 0.794
WASQRYGRELR [BAD_Y110_A107S],inactive: 0.462,inactive: 0.408,inactive: 0.28,inactive: 0.295,inactive: 0.326,inactive: 0.327
EEVGIYRVSGV [BCR_Y1089],inactive: 0.668,inactive: 0.721,inactive: 0.815,inactive: 0.686,inactive: 0.684,inactive: 0.939
GHLFAYDWIRI [BEST1_Y227_S231R_YF],inactive: 2.65,inactive: 2.33,inactive: 2.57,inactive: 2.19,inactive: 2.47,inactive: 2.64
WRPFGYPRRRR [BCS1L_Y181],inactive: 0.24,inactive: 0.345,inactive: 0.366,inactive: 0.252,inactive: 0.3,inactive: 0.282
APVEDYGGGGG [B4GALT6_Y382_I379V],inactive: 0.675,inactive: 0.577,inactive: 0.632,inactive: 0.341,inactive: 0.559,inactive: 0.593
TLCLCYKEIEE [ATP8B1_Y658],inactive: 1.52,inactive: 1.77,inactive: 1.75,inactive: 1.44,inactive: 1.82,inactive: 1.83
LDAGEYCVPRG [BEX1_Y43],inactive: 0.613,inactive: 0.692,inactive: 0.66,inactive: 0.669,inactive: 0.633,inactive: 0.928
GIMEEYQLPFF [BMPR1A_Y453_V450M_YF],inactive: 1.25,inactive: 0.936,inactive: 1.14,inactive: 0.758,inactive: 0.864,inactive: 1.18
VSTAVYKRFAS [BEST1_Y148_P152A],inactive: 0.502,inactive: 0.439,inactive: 0.283,inactive: 0.305,inactive: 0.387,inactive: 0.362
QDIMAYRSREV [BCL6_Y157_G159S],inactive: 0.922,inactive: 0.383,inactive: 0.68,inactive: 0.427,inactive: 0.542,inactive: 0.613
INQGPYENHSV [ATP6V1B1_Y462_R465H],inactive: 0.941,inactive: 0.887,inactive: 1.09,inactive: 0.763,inactive: 0.852,inactive: 0.957
GHPFAYDWISI [BEST1_Y227_L224P_YF],inactive: 1.38,inactive: 1.04,inactive: 1.15,inactive: 1.42,inactive: 1.17,inactive: 1.08
FDDDDYDMDFV [BLM_Y296_T298M],inactive: 0.538,inactive: 0.612,inactive: 0.601,inactive: 0.631,inactive: 0.575,inactive: 0.719
FECKWYIPLTD [BCR_Y756_D752E_YF],inactive: 1.13,inactive: 1.17,inactive: 1.28,inactive: 1.18,inactive: 0.953,inactive: 1.96
KNSFKYYMSDD [ATRX_Y203_C200S],inactive: 1,inactive: 0.883,inactive: 0.694,inactive: 0.624,inactive: 0.668,inactive: 0.627
GMTRNYIIFIE [BCO2_Y294],inactive: 2.57,inactive: 2.16,inactive: 2.55,inactive: 1.98,inactive: 2.56,inactive: 2.11
RKLVDYNSARH [BIN1_Y150_D151N],inactive: 0.638,inactive: 0.54,inactive: 0.363,inactive: 0.382,inactive: 0.508,inactive: 0.869
